# Laboratory results published in PubChem BioAssay AID1508621 (National Center for Advancing Translational Sciences (NCATS), 2021).
# This list was built around the results that the source calls inconclusive (neither active nor inactive); the mix of calls is not that of the screen. Where the call is inconclusive, the potency comes from a doubtful curve fit. Activity calls are given as the source filed them. Calls follow the shape of the dose curve; as a rule, active = well fitted inhibition curve with a large enough effect; inconclusive = small, poorly fitted or top-dose-only effect; inactive = no such curve, though single readings can be large or run the other way.
# Assay: Confirmatory qHTS for Identification of Small Molecule Inhibitors of Huntingtin Promoter Activity; also: nearly all actives have a fitted effect of over 65% in size
# Details: HEK293 HTT promoter firefly luciferase reporter, 24 h; series mostly up to 57.5 µM; activity change, negative = inhibition: at the top concentration
# Summary of the method: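 Activity normalized between vehicle control (0%) and zero RLU (-100%) from firefly luminescence (Dual-Glo). Compounds, up to 57.5 uM final, incubated 24 h at 37C on HEK293 reporter cells plated 24 h earlier.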
# Potency is read from the fitted curve at half-maximal effect; tags tell the direction and shape of the fitted curve.
Compound,Potency,"activity change, negative = inhibition"
Cc1ccc(Cl)cc1N1CCN(C(=O)CCS(=O)(=O)c2ccc3c(c2)oc(=O)n3C)CC1,"inconclusive: 15.1 µM [inhibitor, partial curve]",–
CC(=O)Nc1ccc(S(=O)(=O)Nc2cc(-c3cn4ccccc4n3)ccc2C)cc1,–,inactive: 10.7%
CCC(=O)N1CCCc2cc(S(=O)(=O)N3CCC(C(=O)Nc4ccc(F)c(F)c4)CC3)ccc21,"inconclusive: 15.1 µM [inhibitor, partial curve]",–
CCc1c(C)nc2nncn2c1NCc1ccc(OC)cc1,"inconclusive: 23.9 µM [inhibitor, partial curve]",–
COc1cccc(-c2nc(CS(=O)CC(=O)N3CCN(c4cccc(C(F)(F)F)c4)CC3)c(C)o2)c1 (stereo not given),"inconclusive: 30.1 µM [inhibitor, single point]",–
O=C(Nc1ccc(F)cc1F)N1CCN(c2ccc(Cl)c(Cl)c2)CC1,"inconclusive: 19 µM [inhibitor, partial curve]",–
COC(=O)c1ccccc1NC(=O)Cn1nc(C(F)(F)F)c2c1CCCC2,"inconclusive: 26.9 µM [inhibitor, single point]",–
Cc1ccc(CN2CCCn3nc(C(=O)NCc4cc(C)ccc4C)cc3C2=O)cc1,"inconclusive: 9.53 µM [inhibitor, partial curve]",–
CCc1ccc(NC(=O)C2CCCN(S(=O)(=O)c3cccc4nsnc34)C2)cc1 (stereo not given),"inconclusive: 23.9 µM [inhibitor, single point]",–
Cc1ccccc1OCC(=O)NCC(c1ccc(Cl)cc1)N1CCOCC1 (stereo not given),"inconclusive: 21.3 µM [inhibitor, partial curve]",–
COc1cccc(NC(CNS(=O)(=O)c2ccc(Cl)cc2)c2ccccc2)c1 (stereo not given),"inconclusive: 26.9 µM [inhibitor, partial curve]",–
Cc1ccc(CNC(=O)Nc2cc(C(=O)NCc3ccc(C(C)C)cc3)ccc2N2CCCC2)cc1,"inconclusive: 26.9 µM [inhibitor, partial curve]",–
CC(C)C[C@@H](C=O)NC(=O)[C@H](CC(C)C)NC(=O)[C@H](CC(C)C)NC(=O)OCc1ccccc1,active: 2.13 µM,–
CCc1ccc(NC(=O)c2ccc(F)c(S(=O)(=O)N(C)C3CCCCC3)c2)cc1,"inconclusive: 7.57 µM [inhibitor, partial curve]",–
CC1CCN(C(=O)CSc2nnc(NC(=O)Nc3ccccc3)s2)CC1,"inconclusive: 30.1 µM [inhibitor, single point]",–
CCOc1ccc(S(=O)(=O)NCCc2sc3nc(-c4ccc(C)cc4)nn3c2C)cc1,"inconclusive: 9.53 µM [inhibitor, partial curve]",–
CN(C)c1ccc(Nc2nc(N)n(C(=O)c3c(F)cccc3F)n2)cc1,–,inactive: 107%
CCc1ccc(NC(=O)c2cc(S(=O)(=O)N3CCCCCC3)ccc2F)cc1,"inconclusive: 37.9 µM [inhibitor, single point]",–
COc1cccc(CNC(=O)c2ccc3nc(N4CCCCC4)sc3c2)c1OC,–,inactive: -26.3%
Cc1cccc(S(=O)(=O)Nc2cccc(-c3ccc(N4CCCCC4)nn3)c2)c1,–,inactive: -15.6%

Compound,Potency,"activity change, negative = inhibition"
COc1ccc(CNC(=O)Nc2ccc3c(c2)N(C)C(=O)c2ccccc2S3)cc1OC,"inconclusive: 30.1 µM [inhibitor, single point]",–
CCNc1nc2c(c(=O)n(C)c(=O)n2C)n1Cc1ccc(F)cc1,"inconclusive: 3.79 µM [inhibitor, full curve]",–
CC(=O)c1cccc(NS(=O)(=O)c2ccc3[nH]c4c(c3c2)CCCCC4)c1,"inconclusive: 23.9 µM [inhibitor, partial curve]",–
COc1ccc(S(=O)(=O)NCCc2cc3ccc(C)c(C)c3[nH]c2=O)cc1,"inconclusive: 21.3 µM [inhibitor, partial curve]",–
CCOc1ccc(CCNC(=O)c2cc3n(n2)CCCN(Cc2ccc(C)cc2)C3=O)cc1OCC,"inconclusive: 13.5 µM [inhibitor, partial curve]",–
O=C(Nc1cccc(C(=O)N2CCN(c3ccc(Cl)cc3)CC2)c1)c1nsc2ccccc12,–,inactive: -35.8%
Cc1oc(-c2ccc(Cl)cc2)nc1CN1CCCC(C(=O)NCCc2ccccc2)C1 (stereo not given),"inconclusive: 15.1 µM [inhibitor, partial curve]",–
Cc1ccc(-n2ncc3c(N(CCO)Cc4ccccc4)ncnc32)cc1,–,inactive: 15.7%
CC(=O)N1CCCc2cc(S(=O)(=O)N3CCN(c4ccc(F)cc4)CC3)ccc21,"inconclusive: 12 µM [inhibitor, partial curve]",–
COc1ccc(CN2CCc3c(c(=O)n4ncc(C(=O)N5CCN(c6ccccc6OC)CC5)c4n3C)C2)cc1,"inconclusive: 5.36 µM [inhibitor, partial curve]",–
Cc1ccc(C)c(N2CCN(C(=O)c3nn(C)c4c3CS(=O)(=O)c3ccccc3-4)CC2)c1,active: 23.9 µM,–
Cc1ccc(C)c(N2CCN(CCCNC(=O)c3cnn(-c4ccccc4Cl)c3C3CCN(C(=O)OC(C)(C)C)CC3)CC2)c1,"inconclusive: 21.3 µM [inhibitor, single point]",–
CCOC(=O)c1cc(C)n(CC2CCC(C(=O)Nc3ccc(Cl)cc3)CC2)c1C (stereo not given),"inconclusive: 4.78 µM [inhibitor, partial curve]",–
Cc1cccc(N2CCN(S(=O)(=O)c3ccc4c(c3)C(C(C)C)C(=O)N4)CC2)c1C (stereo not given),"inconclusive: 15.1 µM [inhibitor, partial curve]",–
CCOC(=O)C1CCCN(C(=O)Cn2ncc3c(C)n(Cc4ccc(F)cc4)c(C)c3c2=O)C1 (stereo not given),"inconclusive: 8.49 µM [inhibitor, partial curve]",–
O=C(CN1C(=O)C2(SCC(=O)N2c2cccc(Cl)c2)c2ccccc21)NCCc1ccccc1 (stereo not given),"inconclusive: 37.9 µM [inhibitor, single point]",–
CCC1=C(c2ccc(C)cc2)S(=O)(=O)N=C1N1CCC(C(=O)NCCc2ccc(Cl)cc2)CC1,"inconclusive: 9.53 µM [inhibitor, partial curve]",–
O=C1CSC2(C(=O)N(Cc3cccc(C(F)(F)F)c3)c3ccccc32)N1c1ccc(F)c(F)c1 (stereo not given),"inconclusive: 26.9 µM [inhibitor, single point]",–
COc1ccccc1C(=O)Nc1nc2n(n1)C(c1ccc(F)cc1)C=C(c1ccc(Cl)cc1)N2 (stereo not given),"inconclusive: 37.9 µM [inhibitor, single point]",–
COc1ccc(-c2nc3sc(CCNS(=O)(=O)c4ccccc4)c(C)n3n2)cc1,"inconclusive: 6.75 µM [inhibitor, full curve, poor fit]",–
